PMC4336329 (PLoS ONE, 2015)
Among all 310,000 compounds or so, about 14,000 (4.5%) showed an effect of 50% or more. The effect is printed as a negative number. This is one part of the list.

biological target: human ether-à-go-go-related gene (hERG) potassium channel (human, UniProt Q12809); experiment: primary screen, population patch clamp on CHO cells stably expressing hERG
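Note: peak tail current of the secondary pulse compared with the same well before compound.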

Chain of human ether-à-go-go-related gene (hERG) potassium channel (Q12809 whole entry, looked up): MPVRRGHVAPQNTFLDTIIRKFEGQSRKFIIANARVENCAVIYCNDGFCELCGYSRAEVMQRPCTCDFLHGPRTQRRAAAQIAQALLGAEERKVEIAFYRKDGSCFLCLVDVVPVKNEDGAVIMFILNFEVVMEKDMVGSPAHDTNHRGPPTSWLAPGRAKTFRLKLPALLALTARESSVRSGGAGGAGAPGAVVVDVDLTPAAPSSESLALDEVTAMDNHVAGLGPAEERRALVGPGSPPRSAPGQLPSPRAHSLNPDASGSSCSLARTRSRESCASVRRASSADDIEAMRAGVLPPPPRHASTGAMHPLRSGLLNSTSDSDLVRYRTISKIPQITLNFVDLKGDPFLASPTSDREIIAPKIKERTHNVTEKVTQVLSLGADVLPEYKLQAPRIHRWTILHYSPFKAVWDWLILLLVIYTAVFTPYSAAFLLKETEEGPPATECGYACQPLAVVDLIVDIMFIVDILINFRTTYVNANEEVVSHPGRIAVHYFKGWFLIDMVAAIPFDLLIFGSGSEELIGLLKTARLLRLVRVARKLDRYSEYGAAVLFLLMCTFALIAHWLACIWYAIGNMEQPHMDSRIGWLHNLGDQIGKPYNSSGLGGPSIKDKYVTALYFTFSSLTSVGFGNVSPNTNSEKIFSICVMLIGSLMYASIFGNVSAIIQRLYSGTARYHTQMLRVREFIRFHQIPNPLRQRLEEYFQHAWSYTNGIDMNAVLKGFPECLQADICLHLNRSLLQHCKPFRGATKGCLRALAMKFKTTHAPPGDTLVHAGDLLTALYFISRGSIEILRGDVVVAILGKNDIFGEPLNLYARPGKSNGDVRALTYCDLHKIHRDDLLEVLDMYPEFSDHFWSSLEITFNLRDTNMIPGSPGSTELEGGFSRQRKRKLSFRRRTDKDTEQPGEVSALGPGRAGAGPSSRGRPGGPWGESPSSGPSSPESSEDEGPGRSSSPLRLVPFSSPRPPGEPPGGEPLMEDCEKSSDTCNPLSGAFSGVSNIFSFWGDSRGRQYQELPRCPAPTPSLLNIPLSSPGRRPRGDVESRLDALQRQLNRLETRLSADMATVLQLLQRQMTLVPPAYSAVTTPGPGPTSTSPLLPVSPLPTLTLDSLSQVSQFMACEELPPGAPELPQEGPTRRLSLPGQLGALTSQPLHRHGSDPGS

Compound | hERG current change (%, negative = inhibition) at 10uM
O=C(c1cn(-c2ccc(Cl)c(Cl)c2)nn1)C1CC1 | 11.6%
O=S(=O)(CCN(CCS(=O)(=O)C(F)(F)F)CC1CCCO1)C(F)(F)F (stereo not shown) | -6.91%
COc1ccc(CC(=O)Nc2cc3oc4ccccc4c3cc2OC)cc1 | -7.9%
N#CC(=C=[N-])C1=C(C#N)C(c2ccccc2F)C([n+]2ccccc2)C(O)(C2CC2)N1 (stereo not shown) | 14.3%
O=c1oc2ccccc2n1CCc1ccccc1 | -14.1%
COc1ccc(S(=O)(=O)c2c[nH]c(=S)[nH]c2=O)cc1Cl | 21.9%
FCCCOc1ccc(-c2nccc(-c3ccccn3)n2)cc1 | 7.26%
CCOc1ccccc1NC(=O)CN1C(=O)NC(Cc2c[nH]c3ccccc23)C1=O (stereo not shown) | -16.6%
C#CCOc1c(Cl)cc(/C=N/O)cc1OC | 4.04%
Cc1nc(N)nc(Nc2ccc(C#N)cc2)c1Br | -4%
Cc1ccc(NC(=O)/C(=C\c2ccc3c(c2)OCO3)NC(=O)c2ccco2)cc1 | 1.13%
CCCC(C(=O)NC1CCCC1)N(CC1CCCO1)C(=O)c1snc(C(N)=O)c1N (stereo not shown) | -36.4%
O=C(CCNC(=O)c1ccc(Cl)cc1)NC1CCCc2ccccc21 (stereo not shown) | 2.28%
Cc1cccc(NC(=O)C(=O)NCCCN2CCOCC2)c1 | 21.3%
Cc1cccnc1CCNC(=O)c1ccc(OC2CCN(Cc3ccccn3)CC2)cc1 | -16.6%
COc1ccc(-c2c(C#N)c(N)nc3c2CCc2ccccc2-3)cc1OC | 7.25%
CCOC(=O)c1csc(N)n1.Cl | 8.31%
O=C(CCN1C(=O)/C(=C\c2cccc(Br)c2)SC1=S)N1CCOCC1 | 8.36%
CCN(CC)S(=O)(=O)c1csc(C(=O)OCC(=O)c2ccccc2)c1 | -2.37%
COCCNC(=O)c1cc(Br)ccc1Cl | -6.51%
Cc1sc2nc(C(C)Nc3ccccc3N3CCOCC3)[nH]c(=O)c2c1C (stereo not shown) | 11.1%
CN1CCN(c2ccc(NC(=O)c3ccc(-c4ccc(Br)cc4)o3)cc2)CC1 | 0.645%

Compound | hERG current change (%, negative = inhibition) at 10uM
CCc1nc2ccccc2c(NC(=O)CN2CCC(C)CC2)c1C.O=C(O)C(=O)O | -29.2%
COc1cc(C(=O)Oc2cc(N)n(S(=O)(=O)c3ccc(F)cc3)n2)cc(OC)c1OC | 16.1%
CCCCNC(=O)C1CCN(S(=O)(=O)c2cnc[nH]2)CC1 | 10.3%
CCOc1[nH]c(/N=C/c2ccco2)c(C#N)c1C#N | 3.52%
O=C(Nc1ccc(S(=O)(=O)Nc2nccs2)cc1)c1cc(-c2ccccc2Cl)nc2ccccc12 | 12%
CCOc1ccc(CNC(=O)CCn2c(=O)oc3ccccc32)cc1 | -26.9%
c1ccc(Cc2nc3ccccc3n2Cc2ccccc2)cc1 | -53.4%
O=C(CCNNC(=O)c1ccncc1)NCc1ccccc1 | 9.98%
CCOC(=O)[C@H]1[C@H]2COc3ccc(Br)cc3[C@@H]2N2C(=O)CN(Cc3ccc(F)cc3)C(=O)[C@@]12C | -3.28%
Cn1c(SCc2ccc(F)cc2Cl)nc2ccccc2c1=O | 15.5%
CCCCc1nc(SCCOC)c2c(=O)n(C)c(=O)n(C)c2n1 | -23%
CCn1c(SCC(=O)NCCc2ccccc2)nnc1-c1ccco1 | -18.1%
COc1ccc(CSc2ncnc3sccc23)cc1F | 26.9%
O=C(CC(c1ccccc1)c1ccccc1O)N1CCCC1 (stereo not shown) | -11.9%
CCOC(=O)c1ccccc1NC(=O)COC(=O)CC1CCCCC1 | 7.72%
COc1ccc(NC(=O)c2cc(C)nc3ccccc23)cc1S(=O)(=O)Nc1ccccc1Cl | 11%
O=C(Nc1ccccc1Cl)c1cc[n+](Cc2ccc([N+](=O)[O-])cc2)cc1.[Br-] | 10.6%
C[C@@H](NC(=O)c1ncn(C)c1C(=O)N[C@H](C)c1ccccc1)c1ccccc1 | -2.69%
Cc1cc(C)c(NC(=O)CNC(=O)[C@@H]2CCCN2C(=O)c2cccs2)c(C)c1 | -3.04%
COc1ccc(CCNC(=O)C2CC(c3ccccc3C(F)(F)F)=NO2)cc1 (stereo not shown) | -0.696%
CCCCOC(=O)C1=C(C)NC2=C(C(=O)CCC2)C1c1cc(OC)ccc1OC (stereo not shown) | -14.8%
CCOC(=O)C1CCN(C(=O)Cc2ccc(-c3ccccc3)cc2)CC1 | -57.7%

Compound | hERG current change (%, negative = inhibition) at 10uM
Cn1c(N)c(S(=O)(=O)NCc2ccccc2)c(=O)n(C)c1=O | 17.7%
Cc1ccc(NC(=O)COC(=O)CNC(=O)c2cccc([N+](=O)[O-])c2)cc1S(=O)(=O)N1CCCCCC1 | -49.1%
CCOc1cc(NC(=O)c2cccs2)c(OCC)cc1NC(=O)CCC(=O)NCC1CCCO1 (stereo not shown) | 18.2%
O=C(c1ccco1)n1nc(-c2cccnc2)nc1NCc1ccco1 | -11.1%
CC1=Nc2ccccc2N=C(NC(=O)CN2CCN(c3ccccc3)CC2)C1c1ccccc1 (stereo not shown) | 17%
Cc1ccc(/C=C/C(=O)N2CC(=O)Nc3ccccc32)o1 | -24.2%
CCCCn1c(N)c(N(CCC(C)C)C(=O)C2CC(=O)N(CCc3ccc(OC)c(OC)c3)C2)c(=O)[nH]c1=O (stereo not shown) | -11.5%
NC(=O)c1ccc(-n2nnnc2SCC(=O)Nc2ccccc2F)cc1 | 18.9%
Cc1nc(S(=O)(=O)N2CCOCC2)c(C#N)c(C)c1Cl | 4.49%
COC(=O)c1ccccc1NC(=O)CNC(=O)c1ccc(OC)c(OC)c1 | -0.204%
CCOc1cc(CNCc2ccccn2)cc(Cl)c1OCC.Cl | -0.796%
O=C(C1CCN(S(=O)(=O)N2CCOCC2)CC1)N1CCc2ccccc21 | -3.51%
Cn1c(=O)c2[nH]c(CNc3ccc(C(=O)O)cc3)nc2n(C)c1=O | 0.163%
COc1ccc(-c2onc3ccc(Br)cc23)cc1 | 8.68%
O=C(NCCc1ccc(F)cc1)c1n[nH]c2ccccc12 | 0.395%
CCc1nc2ccccc2n1CC(=O)Nc1cc(C)on1 | 5.49%
COc1cccc(NS(=O)(=O)c2ccc3c(c2)CC(=O)N3)c1 | -0.388%
Cc1ccc(C(=O)N2C(=O)C(c3ccccc3)Oc3ccccc32)cc1 (stereo not shown) | 3.82%
CCN(CC)CCN1C(=O)C(=O)/C(=C(/O)c2ccc(OC(C)C)cc2)C1c1ccncc1 (stereo not shown) | 14.6%
CN=C1S/C(=C\c2cn(CC(=O)OC)c3ccccc23)C(=O)N1C | 7.11%
Cc1nnc(SCc2ccc([N+](=O)[O-])cc2)[nH]c1=O | 15%
CCCC1(CCC)NC(=O)N(CC(=O)Nc2ccccc2OC)C1=O | 5.47%

Compound | hERG current change (%, negative = inhibition) at 10uM
CCc1noc(C)c1C(=O)Nc1ccccc1C(C)(C)C | -4.94%
COc1ccc(CCNC(=O)Cn2cnc3ccccc3c2=O)cc1OC | 13%
CCc1ccc(/C=C2\C(=N)N3N=C(CC(=O)N4CCCCC4)SC3=NC2=O)cc1 | 11.9%
COc1cc(NC(=O)CN2CCCCCC2)cc(OC)c1 | 5.28%
FC(F)(F)c1ccc2c(c1)ncn2C1CCN(Cc2nnnn2C2CCCCC2)CC1 | -59.6%
CN(C)c1ccc(S(=O)(=O)NCC(=O)NCC2CCCCC2)cc1[N+](=O)[O-] | -1.3%
O=C(NNc1nc(-c2ccccc2)c2cc(Br)ccc2n1)c1ccc(S(=O)(=O)N2CCOCC2)cc1 | -8.01%
COc1ccc(CC(=O)NCC2CCCCC2)cc1OC | -1.62%
CCCCCCCCS(=O)c1sc2nc(C)cc(C)c2c1N (stereo not shown) | -17.2%
N#Cc1cc2c(nc1SCC(O)CS(=O)(=O)Cc1ccc(Cl)cc1)CCCC2 (stereo not shown) | -33.1%
O=C(c1ccccc1)N1CCN(C(=O)c2nn3c(C(F)(F)F)cc(-c4ccco4)nc3c2Br)CC1 | -4.55%
COc1ccc(C(=O)NC(=S)N(C)Cc2ccccc2)cc1Br | 8.47%
CC(=O)Nc1cccc(C(=O)/C=C/c2ccc[nH]2)c1 | 2.65%
CCN(CC)CCCNC(=O)c1ccc(N2CCCCC2)c(NS(=O)(=O)c2ccc(C)cc2)c1 | -69.2%
COc1ccc(C(C)=O)cc1COC(=O)c1cc(C)oc1C | 2.15%
O=C(Nc1ccc(S(=O)(=O)N2CCCC2)cc1)c1cccc(OC(F)F)c1 | -54.3%
Cc1cc(C(=O)CSc2nnnn2C)c(C)n1CCc1ccc(F)cc1 | -0.0703%
Cn1cc(Br)c(C(=O)Nc2nccs2)n1 | 10.5%
CCc1ccc(OCc2nc(-c3ccccn3)no2)c(Br)c1 | -14.6%
CCOC(=O)NC(N(O)c1cccc(Cl)c1)C(Cl)(Cl)Cl (stereo not shown) | -74.2%
COc1ccc(NC2=CC(c3ccc(OC)c(OC)c3)N(c3ccc(OC)cc3)C2=O)cc1 (stereo not shown) | -2.31%
Cc1cc(C(=O)OCC(=O)Nc2ccc(S(=O)(=O)N3CCOCC3)cc2)c(C)o1 | -10.2%
